B1: OR4K15 (parent)
chain: GUUAACGGUCAUAGGCCAUGGAAACUAGGAGCACCAUUUCGCUGCCAGUGAAGAAAUGAACAAAGAAAAUCUGGGCCAGGCAGGCAUCAAAAGAAAUAGUCUUGCGCUCAACCAGAAAGUCUGUAAUCAUUUUAAGGGUA

The source gives no read counts; variants with many changes may rest on few reads.

Variants of B1 are the subject of this series. Put plainly: self-cleavage, relative activity (ratio to wild type); higher = more cleavage; in vitro, sequencing; the parent is a self-cleaving ribozyme.
Turning to GUUAACGGUCAUAGGCCAUGGAAACUAGGAGCACCAUUUCGCUGCCAGCGAAGGAAUGAACAAAGAAAAUCUGGGCCAGGCAGGCAUCAAAAGAAAUAGUCUUGCGCUCAACCAGAGGGUCUGUAAUCAUUUUAAGGGUA, the self-cleavage is 1.87. On to GUUAACGGUCAUAGGCCAUGGAAACUAGGAGCACCAUUUCGCUGCCAGAGAAGAAAUGAACAAAGAAGAUCUGGGCCAGGCAGGCAUCAAAAGAAAUAGUCUUGCGCUCAACCAGAAGGUCUGUAAUCAUUUUAAGGGUA, for which the self-cleavage was determined as 0.88. Next, GUUAACGGUCAUAGGCCAUGGAAACUAGGAGCACCAUUUCGCUGCCAGCGAAGAAGUGAACAAAGAAAAUCUGGACCAGGCAGGCAUCAAAAGAAAUAGUCUUGCGCUCAACCAGAAAGUCUGUAAUCAUUUUAAGGGUA: 0.16. The same measure for GUUAACGGUCAUAGGCCAUGGAAACUAGGAGCACCAUUUCGCUGCCAGAGAAGAAAUGAACAAAGAAAAUCUGGGCCAGGCAGGCAUCAAAAGAGAUAGUCUUGCGCUCAGCCAGAAAGUCUGUAAUCAUUUUAAGGGUA: 0.02; for GUUAACGGUCAUAGGCCAUGGAAACUAGGAGCACCAUUUCGCUGCCAGCGAAGAAGUGAACAAAGAAAAUCUGGGCCAGGCAGGCAUCAAAAGGGACAGUCUUGCGCUCAACCAGAAAGUCUGUAAUCAUUUUAAGGGUA: 0.82. The same measure for GUUAACGGUCAUAGGCCAUGGAAACUAGGAGCACCAUUUCGCUGCCAGCGAAGAAAUGGACAAAGAAAAUCCGGGCCAGGCAGGCAUCAAAAGUAAUAGUCUUGCGCUCAACCAGAAAGUCUGUAAUCAUUUUAAGGGUA: 0.24. Consider GUUAACGGUCAUAGGCCAUGGAAACUAGGAGCACCAUUUCGCUGCCAGCGAAGAAAUGGACAAAGAAAAUCUGGGCCAGGCAGGCACCAAAAGGAAUAGUCUUGCGCUCAACCAGAAAGUCUGUAAUCAUUUUAAGGGUA, for which the self-cleavage stood at 1.06. As to GUUAACGGUCAUAGGCCAUGGAAACUAGGAGCACCAUUUCGCUGCCAGCGAAGGAAUGAACAAAGGAAAUCUGGGCCAGGCAGGCAUCAGAAGAAAUAGUCUUGCGCUCAACCAGAAAGUUUGUAAUCAUUUUAAGGGUA, the self-cleavage is 1.45. The same measure for GUUAACGGUCAUAGGCCAUGGAAACUAGGAGCACCAUUUCGCUGCCAGAGAAGAAAUGAACAAAGAAAAUCUGGGCCAGGCGGGCAUCAAAAGAAAUAGUCUUGCGCUCAACCAGAAAGUCUGUAGUCAUUUUAAGGGUA: 0.28; for GUUAACGGUCAUAGGCCAUGGAAACUAGGAGCACCAUUUCGCUGCCAGCGAAGAAGUGGACAAAGAAAAUCUGGGCCAGGCAGGCAUCAAAAGAAAUAGUCUUGCGCUCAACCAGAAAGUCUGUAAUCAUUUUAAGGGUA: 0.99. Next, GUUAACGGUCAUAGGCCAUGGAAACUAGGAGCACCAUUUCGCUGCCAGCGGAGAAACGAACAAAGAAAAUCUGGGCCAGGCAGGCAUCAAAAGAAAUAGUCUUGCGCUCAACCAGAAAGUCAGUAAUCAUUUUAAGGGUA: 0.63. Take GUUAACGGUCAUAGGCCAUGGAAACUAGGAGCACCAUUUCGCUGCCAGCGAAGGAAUGAACAAAGAAAAUCUGGGCCGGGCAGGCAUCAAAAGAAAUAGUCUUGCGCUCAACCAGAAAGUCUGUAAUCAUUUUAAGGGUA: the self-cleavage turned out to be 0.32. Next, GUUAACGGUCAUAGGCCAUGGAAACUAGGAGCACCAUUUCGCUGCCAGCGAAGAGAUGAACAAAGAAAAUCUGGGCCAGGCAGGCAUCGAAAGAUAUAGUCUUGCGCUCAACCAGAAAGUCUGUAACCAUUUUAAGGGUA: 0.84; GUUAACGGUCAUAGGCCAUGGAAACUAGGAGCACCAUUUCGCUGCCAGCGAAGGAAUGAACAAAAAAAAUCUGGGCCAGGCAGGCAUCAAAAGAAAUAGUCUUGCGCUCAACCAGAAAGUCUGUAAUCAUUUUAAGGGUA: 1.39.

On to GUUAACGGUCAUAGGCCAUGGAAACUAGGAGCACCAUUUCGCUGCCAGCGAAGAGAUGAACAAAGAAAAUCUGGGCCAGGCAGGCAUCAAAAGAGAUAGUCUUGCGCUCAACCAGAAAGUCUGUAAUCAUUUUAAGGGUA, for which the self-cleavage was 1.11. Next, GUUAACGGUCAUAGGCCAUGGAAACUAGGAGCACCAUUUCGCUGCCAGAGAAGAAAUGAACAAAGAAAGUCUGGGCCAGGCAGGCAUCAAAAGAAAUAGUCUUGCGCUCAACCAGAAAGUCUGUAAUCAUUUAAAGGGUA: 0.72. GUUAACGGUCAUAGGCCAUGGAAACUAGGAGCACCAUUUCGCUGCCAGCGAAGAAAUGGACAAAGAAAGUCUGGGCCAGGCAGGCAUCAAAAGAAAUAGUCUUGCGCUCAACCAUAAAGUCUGUAAUCAUUUUAGGGGUA: the self-cleavage was found to be 0.02. Next, GUUAACGGUCAUAGGCCAUGGAAACUAGGAGCACCAUUUCGCUGCCAGAGAAGAAAUGAACAAAGAAAAUCUGGGCCAGGCAGGCAUCAAGAGAAAUAGUCUUGUGCUCAACCAGAAAGUCUGUAAUCAUUUUAAGGGUA: 0.02. Turning to GUUAACGGUCAUAGGCCAUGGAAACUAGGAGCACCAUUUCGCUGCCAGAGAAGAAAUGAACAAAGGAAAUCUGGGCCAGGCAGGCAUCAAAAGAAAUAGUCUUGCGCUCAACCAGAAAGUCUGUAACCAUUUUAAGGGUA, the self-cleavage is 0.63. Next, GUUAACGGUCAUAGGCCAUGGAAACUAGGAGCACCAUUUCGCUGCCAGCGUAGAAAUGAACAAAGAAAAUCUGGGCCAGGCAGGCAUCAAGAGAAAUAGUCUUGCGCCCAACCAGAAAGUCUGUAAUCAUUUUAAGGGUA: 0.01. Next, GUUAACGGUCAUAGGCCAUGGAAACUAGGAGCACCAUUUCGCUGCCAGCGAAGAAGUGAACAAAGGAAGUCUGGGCCAGGCAGGCAUCAAAAGAAAUAGUCUUGCGCUCAACCAGGAAGUCUGUAAUCAUUUUAAGGGUA: 0.18.

Source of the values: the RNAGym collection of RNA variant scans (doi:10.7554/elife.90254).
